This is one part of the list. The full chains were built here from the parent and the listed change. Inactive controls read about 0.05.
B1: TEV protease; numbered along this chain (parent)
chain: MGESLFKGPRDYNPISSSICHLTNESDGHTTSLYGIGFGPFIITNKHLFRRNNGTLVVQSLHGVFKVKDTTTLQQHLVDGRDMIIIRMPKDFPPFPQKLKFREPQREERICLVTTNFQTKSMSSMVSDTSCTFPSGDGIFWKHWIQTKDGQCGSPLVSTRDGFIVGIHSASNFTNTNNYFTSVPKNFMELLTNQEAQQWVSGWRLNADSVLWGGHKVFMVKPEEPFQPVKEATQL

Variants of: B1
Assay: raw area under fraction-flipped curve 0-4 h after induction (AUC4h, not background-subtracted), DNA-recorder readout of cleavage of the substrate (dimensionless); higher = more cleavage of the substrate by the protease variant
Conditions: temperature: 34 °C; time window: 0-4 h after rhamnose induction
Procedure: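 In vivo DNA recorder in E. coli TOP10(DE3) ΔrhaA at 34 °C. Each TEVp single-site mutant (parent TEVp 0) is paired with a single-site variant of the 7-mer TEVs (canonical ENLYFQ|S). The substrate sits between flexible linkers in a Bxb1-sfGFP-TEVs-SsrA fusion, so cleavage stabilises Bxb1 and speeds flipping of a recombination array, read by NGS. The value is the raw area under the fraction-flipped curve over 0-4 h after rhamnose induction (AUC4h), with ≥20 reads per time point. It is not background-subtracted; inactive controls average about 0.047.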
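Note: Bxb1 expression induced with 0.2% (w/v) L-rhamnose at OD600 near 0.5, cultures sampled hourly, flipped fraction per protease–substrate barcode pair counted by paired-end Illumina sequencing.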

Row | Variant | area with substrate CNLYFQS | area with substrate DNLYFQS | area with substrate FNLYFQS | area with substrate HNLYFQS | area with substrate INLYFQS | area with substrate KNLYFQS | area with substrate LNLYFQS | area with substrate MNLYFQS | area with substrate NNLYFQS | area with substrate PNLYFQS | area with substrate QNLYFQS | area with substrate SNLYFQS | area with substrate TNLYFQS | area with substrate VNLYFQS | area with substrate WNLYFQS | area with substrate YNLYFQS | area with substrate RNLYFQS | area with substrate GNLYFQS
1 | I84E | 0.0534 | 0.0447 | 0.0491 | 0.0509 | 0.0464 | 0.0576 | 0.0358 | 0.0519 | 0.0473 | 0.0644 | 0.0506 | 0.0556 | 0.0545 | 0.0514 | 0.0483 | 0.0539 |  | 
2 | I84G | 0.0633 | 0.0513 |  | 0.043 | 0.0383 | 0.046 | 0.066 |  | 0.0587 |  |  | 0.0625 |  | 0.0415 |  | 0.0441 | 0.0656 | 
3 | D82K | 0.0477 | 0.0379 | 0.0647 | 0.0523 | 0.0479 |  |  |  | 0.0593 |  |  | 0.053 | 0.0463 |  | 0.0606 |  |  | 0.0481
4 | D82N | 0.0611 | 0.0526 |  | 0.0585 | 0.0477 | 0.0634 | 0.0614 | 0.0665 | 0.0546 | 0.0696 | 0.0583 | 0.0531 | 0.0555 | 0.061 | 0.0611 |  | 0.0564 | 0.0648
5 | V78P | 0.0552 | 0.0649 | 0.0535 | 0.0566 | 0.0518 |  | 0.079 |  | 0.0382 | 0.0645 |  | 0.0571 | 0.0628 | 0.0644 | 0.0613 | 0.0589 |  | 0.047
6 | V78W | 0.0751 | 0.0727 |  | 0.0476 |  | 0.0588 | 0.0536 |  | 0.0552 | 0.0582 |  | 0.0559 | 0.0492 |  | 0.0565 | 0.0478 |  | 
7 | V78Y | 0.0618 | 0.0606 | 0.0453 | 0.053 | 0.0613 | 0.0486 | 0.0512 |  | 0.0487 |  |  | 0.0774 | 0.0838 | 0.0501 | 0.0704 | 0.0463 |  | 0.0651
8 | H62A | 0.081 | 0.0642 | 0.0527 |  |  | 0.0394 | 0.0802 |  | 0.0488 | 0.0667 |  | 0.0629 | 0.0797 |  | 0.0637 |  | 0.0445 | 0.0708
9 | I85R | 0.0693 | 0.0582 |  | 0.057 |  | 0.0554 |  | 0.0586 | 0.0601 | 0.0575 |  |  | 0.0698 | 0.0544 |  |  |  | 0.0529
10 | L77H | 0.0598 | 0.0947 |  | 0.0601 | 0.0627 | 0.0588 | 0.056 | 0.0529 |  | 0.0857 |  | 0.0633 | 0.0642 |  | 0.0694 | 0.0602 |  | 0.0816
11 | L77Y | 0.0476 | 0.0665 | 0.0603 | 0.0566 | 0.0599 | 0.0642 |  | 0.0603 |  | 0.0603 | 0.0608 | 0.057 | 0.052 |  |  | 0.0505 |  | 0.0309
12 | L77I | 0.0664 | 0.0721 |  | 0.0506 | 0.0735 | 0.0651 | 0.0403 | 0.0565 |  | 0.058 | 0.0608 |  | 0.0576 |  | 0.0704 |  |  | 
13 | M83D | 0.0463 | 0.0514 | 0.0503 | 0.054 | 0.0512 | 0.0441 | 0.0448 | 0.0479 | 0.0572 |  |  | 0.0616 | 0.0549 | 0.0362 | 0.0482 | 0 |  | 0.0904
14 | R81C | 0.0649 | 0.0666 |  | 0.0605 | 0.0521 | 0.055 | 0.0895 |  | 0.0519 |  |  | 0.0629 | 0.0657 |  | 0.0553 | 0.0537 | 0.0438 | 0.0562
15 | D69E | 0.0715 | 0.0592 |  | 0.0916 | 0.064 | 0.0575 | 0.0598 |  |  | 0.0436 |  |  |  |  |  | 0.0585 |  | 
16 | T71E | 0.0632 | 0.0745 | 0.0671 | 0.063 | 0.0335 | 0.0332 | 0.0761 | 0.065 | 0.0635 | 0.0694 |  |  | 0.0709 |  | 0.0572 |  |  | 0.078
17 | K66L | 0.0633 | 0.0838 |  | 0.0625 |  | 0.0741 | 0.0569 | 0.06 | 0.058 | 0.0675 | 0.0603 | 0.0674 |  |  | 0.0657 | 0.0418 | 0.0699 | 0.0721
18 | H76R | 0.0719 | 0.0555 | 0.0696 | 0.0588 | 0.0443 |  | 0.0619 |  |  | 0.0759 |  | 0.0783 | 0.0737 |  | 0.0634 | 0.0482 |  | 0.0574
19 | Q75K | 0.0602 | 0.0603 | 0.0587 | 0.0503 |  |  | 0.0615 |  | 0.0651 | 0.0647 |  | 0.0606 | 0.0638 |  | 0.0529 | 0.065 |  | 0.066
20 | Q75F | 0.0613 | 0.0737 |  | 0.0582 | 0.0357 | 0.0477 | 0.0609 | 0.0717 | 0.0565 | 0.069 | 0.0586 |  | 0.0564 |  | 0.0504 | 0.0538 |  | 
21 | Q75R | 0.0577 | 0.0573 |  | 0.0564 | 0.0365 | 0.0533 |  | 0.083 |  | 0.0638 |  | 0.0703 |  | 0.0456 | 0.0615 | 0.0454 |  | 0.0578
22 | L73I | 0.0708 | 0.13 | 0.052 | 0.0646 |  | 0.0393 |  |  | 0.0693 | 0.0744 |  | 0.0597 | 0.0525 |  | 0.0793 | 0.0733 | 0.0664 | 0.0697
23 | T70E | 0.0718 | 0.0663 |  |  | 0.0606 | 0.0571 |  | 0.0525 | 0.054 | 0.0521 |  | 0.0554 |  |  |  | 0.0356 |  | 
24 | T70I | 0.059 | 0.0691 | 0.0649 | 0.0615 | 0.0617 |  |  | 0.0767 | 0.0616 | 0.0584 |  | 0.0597 | 0.0788 | 0.0632 | 0.0614 | 0.0654 | 0.0582 | 0.0487
25 | F65G | 0.0538 | 0.0666 | 0.0489 | 0.0731 |  | 0.0698 |  | 0.0483 | 0.0601 | 0.0679 |  |  | 0.0634 |  | 0.0553 |  |  | 0.0594
26 | F65L | 0.0546 | 0.0868 |  | 0.0604 |  |  | 0.0472 | 0.0842 |  |  |  | 0.0651 |  | 0.0739 | 0.055 | 0.045 |  | 0.0654
27 | I86Q | 0.0345 | 0.039 | 0.04 | 0.0395 |  | 0.0562 | 0.0371 | 0.0398 |  | 0.0453 |  | 0.0273 | 0.0313 |  | 0.0339 | 0.0321 |  | 
28 | I86V | 0.0086 | 0.069 |  | 0.0666 |  |  | 0.0535 | 0.067 | 0.0562 | 0.0645 |  |  | 0.0549 |  | 0.0484 |  | 0.0639 | 

— the supplement of paper PMC12217912
